# Reference: PubChem BioAssay AID463173 (ICCB-Longwood Screening Facility, Harvard Medical School, 2010)
# Hit rate of the full screen: of about 52,000 compounds, about 4,300 (8.3%) were called active. Cut-off read from the data, not from the text of the source: active = survival mostly below about 52% (no sharp cut-off); inactive = mostly above about 56%. Some of the results follow.
# Test system: DeltatarO mutant
# Assay: growth inhibition of S. aureus wild type versus tarO mutant, primary screen, teichoic acid synthesis inhibitors, RN4220, OD600 (AID 463173)
# Details: OD600, 18 h, stronger effect = lower value, screened at 18.75 µg/mL (by protocol)
row,Structure (SMILES),survival
1,Cc1cccc(OCc2nc(CC(=O)Nc3ccc(Cl)cc3)cs2)c1,inactive: 82%
2,COc1cccc(CSc2nc3ccncc3n2CC(=O)Nc2ccc(OC)c(OC)c2OC)c1,inactive: 98%
3,CCOC(=O)c1cnc2c(ccc3ccccc32)c1Nc1ccc(C(C)=O)cc1,active: 1%
4,COc1cc(C)ccc1OCCSc1nc2ccc(NC(=O)c3ccco3)cc2s1,inactive: 62%
5,COc1ccc(C2CC(=O)c3cc(-c4nc(-c5cccc([N+](=O)[O-])c5)cs4)c(=O)n(-c4ccccc4)c3C2)cc1 (stereo not given),inactive: 48%
6,CCN1c2ccccc2-c2nc(SCC(=O)Nc3cccc(C)c3C)ncc2S1(=O)=O,inactive: 101%
7,COc1ccc(CNC(=O)CCNS(=O)(=O)c2ccc3c(c2)oc(=O)n3C)cc1,inactive: 92%
8,Cc1ccccc1C(=O)Nc1cc(C)c(O)c(-c2nc3ccccc3o2)c1,inactive: 93%
9,CCC1CN(C(=O)Nc2ccccc2F)c2cc(C)ccc2O1 (stereo not given),inactive: 59%
10,CCOc1ccc(-c2nc(Cn3c(=O)cc(C)c4c(C)nn(-c5ccccc5)c43)c(C)o2)cc1,inactive: 55%
11,CC1CCN(CC2CCN(C(=O)NCc3ccccc3)CC2)CC1,inactive: 95%
12,CCCCCCn1nnc2sc(-c3ccccc3)cc2c1=O,inactive: 106%
13,CCc1ccc(NC(=O)CN2C(=O)CSC2=O)cc1,inactive: 76%
14,Cc1ccc(C(=O)c2cn(Cc3cccc(Cl)c3)c3nc(C)ccc3c2=O)cc1,active: 60%
15,CCCCNC(=O)c1nn(C)c2c1CSc1ccccc1-2,inactive: 72%
16,O=C(CSCc1ccc(F)cc1)N1CCN(c2ccccc2F)CC1,inactive: 102%
17,Cc1cc2c(cc1S(=O)(=O)NCc1ccc(F)cc1)n(C)c(=O)c(=O)n2C,inactive: 82%
18,C=CCN=C1SCC(=O)N1S(=O)(=O)c1ccc(C)cc1,active: 60%
19,CCc1ccc(NC(=O)CSc2ccnc(=O)[nH]2)cc1,inactive: 78%
20,COc1cccc(C(=O)NCC2OCCc3ccccc32)c1 (stereo not given),inactive: 57%
21,Cc1nn(C)c(C)c1S(=O)(=O)N(CC(=O)NCCc1ccccc1)c1ccc(C(C)C)cc1,inactive: 85%
22,CCOC(=O)c1oc2ccc(Br)cc2c1N,inactive: 80%
23,COc1ccc(CCC(=O)NCCc2csc(-c3ccc(F)cc3)n2)cc1,inactive: 73%

row,Structure (SMILES),survival
1,CC(C)c1nc2ccccn2c1NC1CCCCC1,inactive: 102%
2,Cc1ccc(-c2nn3c(-c4ccccc4C)nnc3c3ccccc23)cc1,inactive: 40%
3,Cc1cn2c(=O)cc(COC(=O)c3ccc(NC(=O)COc4ccccc4C)cc3)nc2s1,inactive: 95%
4,CCOC(=O)c1cc(-c2ccccc2)n(-c2cccc(C(=O)Nc3cccc(SC)c3)c2)c1C,active: 32%
5,CCc1ccc(-n2c(=O)c3c4c(sc3n(Cc3ccccc3C#N)c2=O)CCCC4)cc1,inactive: 139%
6,CCCn1c2ccccc2c2cnn(CC(=O)Nc3cc(C)c(Cl)cc3OC)c(=O)c21,inactive: 118%
7,CC1CCc2c(sc(NC(=O)Cc3ccccc3)c2C(=O)Nc2ccc(Cl)cc2)C1 (stereo not given),inactive: 57%
8,COc1ccc(OC)c(NC(=O)CSc2nc(=O)n(CCN(C)C)c3c2CCC3)c1,inactive: 67%
9,CCc1ccccc1NC(=O)N1CCOc2ccccc21,inactive: 106%
10,O=C(Cn1ncc2c([nH]c3ccccc32)c1=O)NCCCN1CCN(c2ccc(F)cc2)CC1,inactive: 89%
11,CCCOc1ccc(C2C(=O)N(C3CCCCCC3)CC(=O)N2Cc2ccccc2OC)cc1OC (stereo not given),inactive: 94%
12,O=C(CCn1c(=O)c2sccc2n(Cc2ccccc2F)c1=O)NCc1ccc2c(c1)OCO2,active: 84%
13,CCc1cccc(NC(=O)CCn2c(=O)c3cccn3c3cccnc32)c1,inactive: 91%
14,Cc1ccc(Nc2ccc3cc(S(=O)(=O)N4CCC(C)CC4)ccc3n2)c(Cl)c1,inactive: 88%
15,CCOc1ccc(-n2cc(-c3ccccc3)c3c(NCCc4ccccc4)ncnc32)cc1,inactive: 95%
16,Cc1cccc(NC(=O)Cn2nc(-c3ccccc3)c3cnc4ccccc4c32)c1,inactive: 92%
17,CCOC(=O)N1CCc2c(sc3c2c(=O)n(Cc2ccccc2)c(=O)n3CC(=O)Nc2cccc(CC)c2)C1,inactive: 71%
18,CCc1ccc2nc(N(Cc3cccnc3)C(=O)c3ccc(C#N)cc3)sc2c1,inactive: 73%
19,Cc1ccc(N2CCN(C(=O)c3nn(C)c4c3CS(=O)(=O)c3ccccc3-4)CC2)c(C)c1,inactive: 77%
20,CC(=O)Nc1ccc(NC(=O)c2oc3c(c2C)-c2nn(Cc4ccccc4Cl)cc2CC3)cc1,inactive: 61%
21,CCCCC(=O)Nc1ccc2nc(SCC(=O)N3CCc4ccccc43)sc2c1,inactive: 104%
22,O=C(Nc1ccc(F)cc1F)C1CCN(c2ncccn2)CC1,inactive: 58%
23,O=C(Cn1nnc(-c2ccncc2)n1)N(C1CCCCC1)C1CCCCC1,inactive: 102%

row,Structure (SMILES),survival
1,O=S(=O)(c1ccc(C2CCCCC2)cc1)N1CCN(c2ccc(Cl)c(Cl)c2)CC1,active: 54%
2,Cc1ccccc1NC(=O)Cn1cc(C(=O)c2ccco2)c2ccccc21,inactive: 45%
3,CCC(c1nnnn1C1CCCC1)N1CCN(Cc2ccccc2)CC1 (stereo not given),inactive: 99%
4,Cc1ccc(C)c(N2CCN(c3ncnc4c3nc3n4CCCC3)CC2)c1,inactive: 117%
5,O=C(CCNS(=O)(=O)c1ccc2c(c1)CCCC(=O)N2)Nc1cccc(Cl)c1,inactive: 88%
6,COc1ccc(C(=O)c2c(N)c(-c3nc(-c4ccc5c(c4)OCO5)cs3)c3ccccn23)cc1,inactive: 103%
7,O=C(NCCc1ccccc1)c1ccc(CS(=O)Cc2ccc(Cl)cc2)o1 (stereo not given),inactive: 74%
8,Cc1cc(NC(=O)CCc2nc3cccnc3n2-c2ccccc2)ccc1Br,active: 31%
9,COc1cc(NC(=O)Cn2nc(C(F)(F)F)c3c2CCC3)cc(OC)c1OC,inactive: 130%
10,COc1cc(OC)cc(-c2cc3nc(C)c(CCC(=O)NCCc4cccc(C)c4)c(C)n3n2)c1,inactive: 75%
11,COc1ccc(OC)c(CNC(=O)c2ccc(N3Cc4ccccc4Oc4ncccc43)s2)c1,inactive: 82%
12,O=C(CCn1c(=O)c2ccccc2n(CC(=O)Nc2cccc(F)c2)c1=O)NCCc1ccccc1,inactive: 90%
13,CC1CCCN(CCCNC(=O)c2cc(Sc3ccc(F)cc3)nc3ccccc23)C1 (stereo not given),inactive: 55%
14,CCOC(=O)c1c(C)[nH]c(C)c1S(=O)(=O)N(C)CC(=O)Nc1ccc(OC)cc1,inactive: 86%
15,Cc1cccc(Cn2cc(S(=O)(=O)c3cccc(Cl)c3)c(=O)c3cc(F)c(N4CCOCC4)cc32)c1,inactive: 85%
16,Cn1c(=O)c2nc(SCC(=O)Nc3ccc(OC(F)(F)F)cc3)n(C)c2n(C)c1=O,inactive: 83%
17,COc1ccc(CC(=O)Nc2c(C(=O)N3CCN(c4ccccc4)CC3)oc3ccccc23)cc1OC,inactive: 75%
18,COc1cc(C(CC(=O)Nc2ccc(C)c(F)c2)N2Cc3ccccc3C2=O)cc(OC)c1OC (stereo not given),inactive: 93%
19,COc1ccc(-c2nc(CNC(=O)NC3CCCCC3)c(C)o2)cc1,inactive: 113%
20,CCN(CC)c1ncnc2c1cnn2-c1cc(Cl)ccc1C,active: -5%
21,O=C1OCC2=C1C(c1cccc(Cl)c1)CC(=O)N2c1ccc(C(F)(F)F)cc1 (stereo not given),inactive: 57%
22,CCOc1ccccc1NC(=O)C1CCN(S(=O)(=O)c2c(C)noc2/C=C/c2ccco2)CC1,inactive: 72%
23,O=C(NCCc1ccc(Cl)cc1)c1c2c(nc3ccccc13)C(=O)N(C1CCCCC1)C2,inactive: 92%

row,Structure (SMILES),survival
1,COCC(C)NCc1ccc(SC)cc1 (stereo not given),inactive: 63%
2,Cc1csc2nc(COC(=O)c3ccccc3NC(=O)c3cccc(Br)c3)cc(=O)n12,inactive: 87%
3,O=S(=O)(c1ccc(Br)s1)N1CCN(c2cccc(C(F)(F)F)c2)CC1,inactive: 53%
4,COCCn1c(SCC(=O)Nc2cc(Cl)ccc2OC)nc2c([nH]c3ccccc32)c1=O,inactive: 113%
5,O=C(NC1CCN(C(=O)Nc2ccccc2C(F)(F)F)CC1)c1ccco1,inactive: 89%
6,COC(=O)/C(C#N)=C/c1ccc(OC)cc1,inactive: 79%
7,Cc1noc(-c2ccc(-c3noc(-c4ccc(F)cc4)n3)cc2)n1,inactive: 72%
8,CCOC(=O)c1cccc(NC(=O)CCSCCc2ccccn2)c1,inactive: 87%
9,O=C(CCCn1c2ccccc2c(=O)c2ccccc21)Nc1cccc(Cl)c1,active: 27%
10,Cc1ccc(NC(=O)Cn2nc(-c3ccccc3)nc(Cc3ccc(Cl)cc3)c2=O)cc1,inactive: 94%
11,COc1cc(C2Nc3ccccc3-c3cc(C)nn32)ccc1O (stereo not given),inactive: 121%
12,COc1ccccc1OC(C)C(=O)Nc1cccc(-c2nc3ccccc3s2)c1 (stereo not given),active: 37%
13,COc1ccc(-n2nc(C(=O)Nc3ccccn3)c3c4ccccc4n(C)c3c2=O)cc1,inactive: 72%
14,CCOC(=O)c1ccc(NC(=O)c2cnc3c(-c4ccc(F)cc4)c(C)nn3c2C)cc1,inactive: 108%
15,Cc1cc(C)n(-c2nc3ccccc3nc2Nc2ccc(N(C)C)cc2)n1,active: -2%
16,CCOc1ccc(-c2nc3c(c(SCC(=O)Nc4ccccc4C)n2)Cc2ccccc2O3)cc1,inactive: 117%
17,CCCCN(C(=O)c1cc(OC)c(OC)c(OC)c1)C1=CC2CCC(C1)N2C (stereo not given),inactive: 111%
18,Cc1cc(C)cc(NC(=O)Cn2c(-c3cncs3)nc3ccccc32)c1,active: 37%
19,Cc1ccccc1NC(=O)CC(NCc1cccnc1)C(=O)O (stereo not given),inactive: 86%
20,CCOc1ccc(C(=O)Cn2c(=O)n3nc(CCn4nc(C)cc4C)nc3c3cc(OC)c(OC)cc32)cc1,inactive: 98%
21,Cc1cccc(N(C)c2nc3ccccc3c3nnc(C)n23)c1,inactive: 118%
